Results as given in the supplement of paper PMC4466236.
In all, about 33,000 sequences were measured (“E-score (dimensionless, -0.5 to 0.5)”: median about -0.058, highest 2% from about 0.35 on). The list shows a part of the results.

The sequences below were run on MvaT (assay: PBM 8-mer E-score (mean of HK and ME arrays) (E-score (dimensionless, -0.5 to 0.5)); higher = stronger relative binding preference; most listed sequences are background and not binding sites).
How it was run: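 Reported values are rank-based E-scores, taken as the mean of two universal arrays and parsed with a custom script. Each 8-mer score falls between -0.5 and 0.5. The arrays, ME and HK, were double-stranded 60-mers with a constant 25-mer primer region and a variable 35-mer region covering all 8-mers. They were probed, by an earlier protocol, with full-length P. aeruginosa MvaT carrying an N-terminal glutathione S-transferase fusion.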

Sequence	PBM 8-mer E-score
ACTTTACG	0.181
TGCCAAAA	-0.000748
CGGCACGC	-0.242
ACCTTGCT	-0.104
ATATGGAT	0.172
TAGCGGAA	-0.0464
ATCCACTG	-0.0232
ACAGCTAG	-0.154
CTGTCTTC	-0.0201
CAAAGCAC	-0.0298
ACTTCGGG	-0.0146
AAAGTCCC	-0.0992
GGGGATCA	-0.288
CCATTTAC	0.0906
ATTTAGCC	0.0285
AAGGGATT	0.0714
ACTGAGGA	-0.12
ACCCAGCG	-0.163
AAAGAGGT	0.0575
ACCACTAT	0.0969
ATTTACGG	0.061
GATACAAC	0.0196

Sequence	PBM 8-mer E-score
AGCAGATA	0.0571
CTTGCATA	0.204
GACTCAAC	-0.174
ATTTTGAA	0.222
CACCGTCG	-0.28
TGCATGAA	-0.078
CCACTAAC	0.0983
AGAAGCAG	-0.127
CATAGTGG	0.00667
TATCGCGA	0.0272
ACCAACTG	0.096
AGATCGTC	-0.113
CTCTGGTA	-0.0293
AGCCGTGG	-0.207
ACAAGGTG	-0.176
GACGAGGA	-0.172
GACATTAC	0.143
AGGCCGAA	-0.0967
GGCGATAA	0.137
CACATCCC	-0.0535
ATGATGAA	0.0852
AGCCTGGA	-0.185

Sequence	PBM 8-mer E-score
AATCCCTA	0.0407
AGGGCTAG	-0.198
ACTATCCT	0.069
GAACGAAC	-0.0148
AAAGTCCA	0.0511
ATATAGAA	0.366
GTAGACTA	0.175
CTCAACTA	0.0798
AGGGTCAG	-0.15
AGACAGAC	0.0122
AGTCGAGG	-0.166
TAATAGAA	0.254
ACTTACCA	0.121
CCTTGGGA	-0.209
CGGGCTAA	0.0382
ACCCCGAC	-0.219
CTAGGAAA	-0.061
TGCATTAA	0.332
TCTTACCA	0.0879
CAAGTAGA	0.141
AGGGACGA	-0.224
CCGGCAAC	-0.0911

Sequence	PBM 8-mer E-score
GCGGCGGA	-0.273
ATGACTGG	-0.158
CCGTCCCG	-0.215
GAGCTATC	-0.132
CCTTATGC	-0.0519
GAGATGGC	-0.156
GTCCAGAA	-0.136
AAAATGGC	0.0819
CGTCACCC	-0.201
CATAGCGA	0.0278
GTCCCTGA	-0.157
AGGTGGGG	-0.279
CACAGTTC	0.0722
CACTTTCG	-0.114
GCGATATA	0.361
AAGAAGAA	-0.0743
CAGAGGGA	-0.175
CGGAACAC	-0.0626
AGTCGTTG	0.00501
ATACGCGC	0.108
ATGTCGCA	-0.0506
AGGTGTTC	-0.137

Sequence	PBM 8-mer E-score
CCTACCGC	-0.179
AGCTATTG	0.148
CAGGGGGG	-0.222
TCTATCCA	0.022
TAGACACA	0.00939
AGTTGTCA	0.0771
ACTTATCA	0.196
ATAAGGGG	-0.0441
GCCTCAAC	-0.106
TAATGCCA	0.115
ACTTCCTG	0.116
GAATCAAA	0.13
ATACTTAC	0.305
CGATGCAG	-0.139
GCATTACA	0.0726
CAAAAACC	-0.0563
CTGACAGC	-0.246
GCTGGGGA	-0.258
CTCGCACA	-0.12
ATGTGTCC	0.0838
GGCTGGAA	-0.171
CGTTTTGC	0.0694
